Results from the supplement of paper PMC8728848.
This is one part of the list.

What was measured:
Test in all cases: glycan array binding signal (z-score within array); higher = stronger binding
Conditions in all cases: glycan notation: IUPAC condensed, linker removed
[1] = biological target: Neu5Ac(a2-3)Gal
Method in brief: (§1)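 The binding signal is a Z-score computed within each array and averaged over linkers. Arrays of the same protein sequence at different concentrations or buffers were also averaged together. Data originate from 3228 arrays in the Consortium for Functional Glycomics database, kept only where the protein sequence was available.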

[2] = biological target: Neu5Ac(a2-3)Gal(b1-3)GalNAc
Method in brief: as §1

[3] = biological target: Neu5Ac(a2-3)Gal(b1-3)GalNAc(b1-3)Gal(a1-4)Gal(b1-4)Glc
Method in brief: as §1

[4] = biological target: Neu5Ac(a2-3)Gal(b1-3)GalNAc(b1-4)[Neu5Ac(a2-3)]Gal(b1-4)Glc
Method in brief: as §1

[5] = biological target: Neu5Ac(a2-3)Gal(b1-3)GalNAc(b1-4)[Neu5Ac(a2-8)Neu5Ac(a2-3)]Gal(b1-4)Glc
Method in brief: as §1

[6] = biological target: Neu5Ac(a2-3)Gal(b1-3)GalNAc6S
Method in brief: as §1

[7] = biological target: Neu5Ac(a2-3)Gal(b1-3)GlcNAc
Method in brief: as §1

[8] = biological target: Neu5Ac(a2-3)Gal(b1-3)GlcNAc(b1-2)Man
Method in brief: as §1

[9] = biological target: Neu5Ac(a2-3)Gal(b1-3)GlcNAc(b1-2)Man(a1-3)[GlcNAc(b1-4)][Neu5Ac(a2-3)Gal(b1-3)GlcNAc(b1-2)Man(a1-6)]Man(b1-4)GlcNAc(b1-4)GlcNAc
Method in brief: as §1

[10] = biological target: Neu5Ac(a2-3)Gal(b1-3)GlcNAc(b1-2)Man(a1-3)[Neu5Ac(a2-3)Gal(b1-3)GlcNAc(b1-2)Man(a1-6)]Man(b1-4)GlcNAc(b1-4)GlcNAc
Method in brief: as §1

[11] = biological target: Neu5Ac(a2-3)Gal(b1-3)GlcNAc(b1-3)Gal(b1-3)GlcNAc
Method in brief: as §1

[12] = biological target: Neu5Ac(a2-3)Gal(b1-3)GlcNAc(b1-3)Gal(b1-4)GlcNAc
Method in brief: as §1

[13] = biological target: Neu5Ac(a2-3)Gal(b1-3)GlcNAc(b1-3)GalNAc
Method in brief: as §1

[14] = biological target: Neu5Ac(a2-3)Gal(b1-3)GlcNAc(b1-4)Gal(b1-4)Glc
Method in brief: as §1

[15] = biological target: Neu5Ac(a2-3)Gal(b1-3)GlcNAc(b1-6)GalNAc
Method in brief: as §1

[16] = biological target: Neu5Ac(a2-3)Gal(b1-3)GlcNAc6S
Method in brief: as §1

[17] = biological target: Neu5Ac(a2-3)Gal(b1-3)[Fuc(a1-4)]GlcNAc
Method in brief: as §1

[18] = biological target: Neu5Ac(a2-3)Gal(b1-3)[Fuc(a1-4)]GlcNAc(b1-3)Gal(b1-3)[Fuc(a1-4)]GlcNAc
Method in brief: as §1

[19] = biological target: Neu5Ac(a2-3)Gal(b1-3)[Fuc(a1-4)]GlcNAc(b1-3)Gal(b1-4)[Fuc(a1-3)]GlcNAc
Method in brief: as §1

[20] = biological target: Neu5Ac(a2-3)Gal(b1-3)[GlcNAc(b1-6)]GalNAc
Method in brief: as §1

[21] = biological target: Neu5Ac(a2-3)Gal(b1-3)[Neu5Ac(a2-6)]GalNAc
Method in brief: as §1

[22] = biological target: Neu5Ac(a2-3)Gal(b1-3)[Neu5Ac(a2-6)]GlcNAc(b1-3)[Fuc(a1-3)[Gal(b1-4)]GlcNAc(b1-6)]Gal(b1-4)Glc
Method in brief: as §1

[23] = biological target: Neu5Ac(a2-3)Gal(b1-3)]Neu5Ac(a2-3)Gal(b1-4)]GlcNAc
Method in brief: as §1

[24] = biological target: Neu5Ac(a2-3)Gal(b1-4)Glc
Method in brief: as §1

[25] = biological target: Neu5Ac(a2-3)Gal(b1-4)GlcNAc
Method in brief: as §1

[26] = biological target: Neu5Ac(a2-3)Gal(b1-4)GlcNAc(b1-2)Man
Method in brief: as §1

[27] = biological target: Neu5Ac(a2-3)Gal(b1-4)GlcNAc(b1-2)Man(a1-3)[GlcNAc(b1-4)][Neu5Ac(a2-3)Gal(b1-4)GlcNAc(b1-2)Man(a1-6)]Man(b1-4)GlcNAc(b1-4)GlcNAc
Method in brief: as §1

[28] = biological target: Neu5Ac(a2-3)Gal(b1-4)GlcNAc(b1-2)Man(a1-3)[Neu5Ac(a2-3)Gal(b1-4)GlcNAc(b1-2)Man(a1-6)]Man(b1-4)GlcNAc(b1-4)GlcNAc
Method in brief: as §1

[29] = biological target: Neu5Ac(a2-3)Gal(b1-4)GlcNAc(b1-2)Man(a1-3)[Neu5Ac(a2-3)Gal(b1-4)GlcNAc(b1-2)Man(a1-6)]Man(b1-4)GlcNAc(b1-4)[Fuc(a1-6)]GlcNAc
Method in brief: as §1

[30] = biological target: Neu5Ac(a2-3)Gal(b1-4)GlcNAc(b1-2)Man(a1-3)[Neu5Ac(a2-6)Gal(b1-4)GlcNAc(b1-2)Man(a1-6)]Man(b1-4)GlcNAc(b1-4)GlcNAc
Method in brief: as §1

[31] = biological target: Neu5Ac(a2-3)Gal(b1-4)GlcNAc(b1-2)[Neu5Ac(a2-3)Gal(b1-4)GlcNAc(b1-4)]Man(a1-3)[GlcNAc(b1-4)][Neu5Ac(a2-3)Gal(b1-4)GlcNAc(b1-2)[Neu5Ac(a2-3)Gal(b1-4)GlcNAc(b1-6)]Man(a1-6)]Man(b1-4)GlcNAc(b1-4)GlcNAc
Method in brief: as §1

[32] = biological target: Neu5Ac(a2-3)Gal(b1-4)GlcNAc(b1-2)[Neu5Ac(a2-3)Gal(b1-4)GlcNAc(b1-4)]Man(a1-3)[GlcNAc(b1-4)][Neu5Ac(a2-3)Gal(b1-4)GlcNAc(b1-4)Man(a1-6)]Man(b1-4)GlcNAc(b1-4)GlcNAc
Method in brief: as §1

[33] = biological target: Neu5Ac(a2-3)Gal(b1-4)GlcNAc(b1-2)[Neu5Ac(a2-3)Gal(b1-4)GlcNAc(b1-6)]Man(a1-6)[Neu5Ac(a2-3)Gal(b1-4)GlcNAc(b1-2)Man(a1-3)]Man(b1-4)GlcNAc(b1-4)GlcNAc
Method in brief: as §1

[34] = biological target: Neu5Ac(a2-3)Gal(b1-4)GlcNAc(b1-2)[Neu5Ac(a2-3)Gal(b1-4)GlcNAc(b1-6)]Man(a1-6)[Neu5Ac(a2-3)Gal(b1-4)GlcNAc(b1-2)Man(a1-3)][GlcNAc(b1-4)]Man(b1-4)GlcNAc(b1-4)GlcNAc
Method in brief: as §1

[35] = biological target: Neu5Ac(a2-3)Gal(b1-4)GlcNAc(b1-3)Gal
Method in brief: as §1

[36] = biological target: Neu5Ac(a2-3)Gal(b1-4)GlcNAc(b1-3)Gal(b1-3)GlcNAc
Method in brief: as §1

[37] = biological target: Neu5Ac(a2-3)Gal(b1-4)GlcNAc(b1-3)Gal(b1-4)GlcNAc
Method in brief: as §1

[38] = biological target: Neu5Ac(a2-3)Gal(b1-4)GlcNAc(b1-3)Gal(b1-4)GlcNAc(b1-2)Man(a1-3)[Neu5Ac(a2-3)Gal(b1-4)GlcNAc(b1-3)Gal(b1-4)GlcNAc(b1-2)Man(a1-6)]Man(b1-4)GlcNAc(b1-4)GlcNAc
Method in brief: as §1

[39] = biological target: Neu5Ac(a2-3)Gal(b1-4)GlcNAc(b1-3)Gal(b1-4)GlcNAc(b1-3)Gal(b1-4)GlcNAc
Method in brief: as §1

[40] = biological target: Neu5Ac(a2-3)Gal(b1-4)GlcNAc(b1-3)Gal(b1-4)GlcNAc(b1-3)Gal(b1-4)GlcNAc(b1-2)Man(a1-3)[Neu5Ac(a2-3)Gal(b1-4)GlcNAc(b1-3)Gal(b1-4)GlcNAc(b1-3)Gal(b1-4)GlcNAc(b1-2)Man(a1-6)]GalNAc
Method in brief: as §1

[41] = biological target: Neu5Ac(a2-3)Gal(b1-4)GlcNAc(b1-3)Gal(b1-4)GlcNAc(b1-3)GalNAc
Method in brief: as §1

[42] = biological target: Neu5Ac(a2-3)Gal(b1-4)GlcNAc(b1-3)Gal(b1-4)GlcNAc(b1-3)[Neu5Ac(a2-3)Gal(b1-4)GlcNAc(b1-3)Gal(b1-4)GlcNAc(b1-6)]GalNAc
Method in brief: as §1

[43] = biological target: Neu5Ac(a2-3)Gal(b1-4)GlcNAc(b1-3)Gal(b1-4)GlcNAc(b1-6)[Gal(b1-3)]GalNAc
Method in brief: as §1

[44] = biological target: Neu5Ac(a2-3)Gal(b1-4)GlcNAc(b1-3)Gal(b1-4)[Fuc(a1-3)]GlcNAc
Method in brief: as §1

[45] = biological target: Neu5Ac(a2-3)Gal(b1-4)GlcNAc(b1-3)GalNAc
Method in brief: as §1

B1: Clec2 (Mus musculus), Q9JL99 (protein)
chain: MQDEDGYITLNIKPRKQALSSAEPASSWWRVMALVLLISSMGLVVGLVALGIMSVTQQKYLLAEKENLSATLQQLAKKFCQELIRQSEIKTKSTFEHKCSPCATKWRYHGDSCYGFFRRNLTWEESKQYCTEQNATLVKTASQSTLDYIAERITSVRWIGLSRQNSKKDWMWEDSSVLRKNGINLSGNTEENMNCAYLHNGKIHPASCKERHYLICERNAGMTRVDQLL
glycan array binding signal (z-score) [1]: 0.604
glycan array binding signal (z-score) [2]: -0.182
glycan array binding signal (z-score) [3]: -0.646
glycan array binding signal (z-score) [4]: 0.803
glycan array binding signal (z-score) [5]: -0.158
glycan array binding signal (z-score) [6]: 1.92
glycan array binding signal (z-score) [7]: 0.081
glycan array binding signal (z-score) [8]: 1.15
glycan array binding signal (z-score) [9]: -0.42
glycan array binding signal (z-score) [10]: 3.51
glycan array binding signal (z-score) [11]: -0.738
glycan array binding signal (z-score) [12]: -0.455
glycan array binding signal (z-score) [13]: -0.042
glycan array binding signal (z-score) [14]: 0.267
glycan array binding signal (z-score) [15]: 0.017
glycan array binding signal (z-score) [16]: 0.86
glycan array binding signal (z-score) [17]: -0.172
glycan array binding signal (z-score) [18]: -0.432
glycan array binding signal (z-score) [19]: -0.075
glycan array binding signal (z-score) [20]: -0.495
glycan array binding signal (z-score) [21]: 0.533
glycan array binding signal (z-score) [22]: -0.885
glycan array binding signal (z-score) [23]: 0.6
glycan array binding signal (z-score) [24]: -0.067
glycan array binding signal (z-score) [25]: -0.157
glycan array binding signal (z-score) [26]: 2.36
glycan array binding signal (z-score) [27]: -0.632
glycan array binding signal (z-score) [28]: -0.748
glycan array binding signal (z-score) [29]: -0.891
glycan array binding signal (z-score) [30]: -0.969
glycan array binding signal (z-score) [31]: -0.711
glycan array binding signal (z-score) [32]: -0.615
glycan array binding signal (z-score) [33]: 0.019
glycan array binding signal (z-score) [34]: -0.558
glycan array binding signal (z-score) [35]: -0.601
glycan array binding signal (z-score) [36]: -0.814
glycan array binding signal (z-score) [37]: -0.274
glycan array binding signal (z-score) [38]: -0.452
glycan array binding signal (z-score) [39]: -0.786
glycan array binding signal (z-score) [40]: 2.18
glycan array binding signal (z-score) [41]: -0.803
glycan array binding signal (z-score) [42]: 0.14
glycan array binding signal (z-score) [43]: -0.037
glycan array binding signal (z-score) [44]: -0.238
glycan array binding signal (z-score) [45]: -0.322
